# Some of the results follow.
# System: HSkMC (human skeletal muscle cells)
# Assay: cytotoxicity call (relative viability < 0.9)
# Conditions: 10 µM
row,SMILES,cytotoxicity call
1,O=C(C[C@@H]1CC[C@H]2[C@@H](COC[C@H](O)CN2C(=O)c2ccncc2)O1)NCc1ccc(-c2ccccc2)cc1,inactive
2,COc1ccc(S(=O)(=O)N(C)C[C@@H]2Oc3ccc(NS(=O)(=O)c4c(C)noc4C)cc3C(=O)N([C@H](C)CO)C[C@@H]2C)cc1,inactive
3,COc1ccc(S(=O)(=O)N2C[C@H](O)COC[C@@H]3O[C@@H](CC(=O)NCCN4CCCCC4)CC[C@H]32)cc1,inactive
4,Cc1ccc(-c2ccc3c(c2)O[C@@H](CN(C)C(=O)CN(C)C)[C@H](C)CN([C@@H](C)CO)S3(=O)=O)cc1,inactive
5,COc1cc(OC)cc(C(=O)OCCCN2CCN(CCCOC(=O)c3cc(OC)cc(OC)c3)CC2)c1,inactive
6,CC(C)NC(=O)Nc1ccc2c(c1)C(=O)N([C@@H](C)CO)C[C@@H](C)[C@H](CN(C)S(=O)(=O)c1cn(C)cn1)OCCCC[C@@H](C)O2,inactive
7,Cc1noc(C)c1NC(=O)Nc1ccc2c(c1)C(=O)N([C@H](C)CO)C[C@H](C)[C@@H](CN(C)S(=O)(=O)c1cn(C)cn1)O2,inactive
8,C[C@H](CO)N1C[C@H](C)[C@H](CN(C)Cc2ccc(Cl)c(Cl)c2)Oc2ccc(NC(=O)CCC(F)(F)F)cc2CC1=O,inactive
9,CCCNC(=O)N(C)C[C@H]1Oc2ncc(-c3ccc(C(=O)N(C)C)cc3)cc2C(=O)N([C@H](C)CO)C[C@H]1C,inactive
10,O=C1C(CCS(=O)c2ccccc2)C(=O)N(c2ccccc2)N1c1ccccc1 (stereo not given),inactive
11,Cc1noc(C)c1NC(=O)Nc1ccc2c(c1)C(=O)N([C@H](C)CO)C[C@H](C)[C@@H](CN(C)C(=O)Nc1ccc3c(c1)OCO3)OCCCC[C@@H](C)O2,inactive
12,COc1ccc(NC(=O)Nc2cccc3c2O[C@@H](CN(C)C(=O)Nc2cccc4ccccc24)[C@@H](C)CN([C@@H](C)CO)C3=O)cc1,inactive
13,C[C@H]1CN([C@@H](C)CO)C(=O)c2cccc(NC(=O)Nc3ccc(C(F)(F)F)cc3)c2O[C@@H]1CN(C)Cc1ccc2c(c1)OCO2,active
14,C[C@@H]1CN([C@H](C)CO)C(=O)c2cccc(NS(=O)(=O)c3ccc(Cl)cc3)c2O[C@@H]1CN(C)Cc1ccc(Cl)c(Cl)c1,inactive
15,Cc1ccc(NC(=O)C[C@@H](N)C(=O)O)cc1,inactive
16,COc1ccc(S(=O)(=O)Nc2ccc3c(c2)C(=O)N([C@H](C)CO)C[C@H](C)[C@@H](CN(C)Cc2ccc(Cl)c(Cl)c2)OCCCC[C@H](C)O3)cc1,active
17,Cc1ccc(S(=O)(=O)Nc2ccc3c(c2)C(=O)N([C@H](C)CO)C[C@@H](C)[C@@H](CN(C)CC2CC2)O3)cc1,inactive
18,Cn1cnc2c1c(=O)[nH]c(=O)n2C,inactive
19,C[C@H](CO)N1C[C@H](C)[C@@H](CN(C)Cc2ccc(-c3ccccc3)cc2)Oc2ccc(NS(=O)(=O)c3ccc(Cl)cc3)cc2C1=O,active
20,Cc1noc(C)c1S(=O)(=O)N(C)C[C@@H]1Oc2c(NC(=O)c3cnccn3)cccc2C(=O)N([C@@H](C)CO)C[C@@H]1C,inactive

row,SMILES,cytotoxicity call
1,C[C@@H]1CN([C@H](C)CO)C(=O)c2cccc(NC(=O)c3nc4ccccc4s3)c2O[C@@H]1CN(C)Cc1ccc(C(F)(F)F)cc1,inactive
2,COc1ccc(NC(=O)Nc2cccc3c2O[C@@H](CN(C)Cc2ccc(Oc4ccccc4)cc2)[C@H](C)CN([C@@H](C)CO)C3=O)cc1,inactive
3,COCC#Cc1ccc2c(c1)O[C@@H](CN(C)C(=O)Nc1ccc(OC)cc1)[C@H](C)CN([C@H](C)CO)S2(=O)=O,inactive
4,COC[C@@H]1CN(C(=O)c2cscn2)N1C,inactive
5,C[C@@H]1CCCCO[C@@H](CN(C)Cc2ccccc2)[C@H](C)CN([C@@H](C)CO)C(=O)c2cc(NC(=O)C3CCCCC3)ccc2O1,inactive
6,Cc1[nH]c(=O)[nH]c(=O)c1S(=O)(=O)NCc1ccccn1,inactive
7,C[C@@H]1CN([C@@H](C)CO)C(=O)c2cc(NC(=O)Nc3ccc(C(F)(F)F)cc3)ccc2O[C@@H](C)CCCCO[C@@H]1CN(C)C(=O)Nc1ccccc1,inactive
8,C=CC1CN2CCC1CC2C(O)c1ccnc2ccc(OC)cc12 (stereo not given),inactive
9,C[C@@H]1CN([C@H](C)CO)C(=O)Cc2cc(NS(=O)(=O)c3cn(C)cn3)ccc2O[C@H]1CN(C)S(=O)(=O)c1ccc(Cl)cc1,inactive
10,C/C=C/c1ccc2c(c1)O[C@@H](CN(C)C(=O)c1ccc3c(c1)OCO3)[C@@H](C)CN([C@H](C)CO)S2(=O)=O,inactive
11,O=C(C[C@@H]1C[C@H]2c3cc(NC(=O)Nc4ccc(C(F)(F)F)cc4)ccc3O[C@H]2[C@H](CO)O1)NCc1ccc(Cl)cc1,active
12,Cc1noc(C)c1S(=O)(=O)Nc1ccc2c(c1)C(=O)N([C@@H](C)CO)C[C@@H](C)[C@H](CN(C)Cc1ccc(-c3ccccc3)cc1)O2,inactive
13,C[C@@H]1CN([C@@H](C)CO)C(=O)Cc2cc(NC(=O)Cc3ccccc3)ccc2O[C@@H]1CN(C)Cc1ccc(Oc2ccccc2)cc1,inactive
14,COc1ccc(S(=O)(=O)N(C)C[C@H]2Oc3ccc(NC(=O)c4ccncc4)cc3C(=O)N([C@H](C)CO)C[C@H]2C)cc1,inactive
15,Cc1cc(=O)nc(-n2ncc(C#N)c2N)[nH]1,inactive
16,OCc1ccc2c(c1)OCCO2,inactive
17,O=C(C[C@H]1CC[C@H]2[C@@H](COC[C@H](O)CN2C(=O)Nc2ccc(C(F)(F)F)cc2)O1)NCc1ccncn1,inactive
18,NC1(C(=O)O)CC(C(=O)O)C1 (stereo not given),inactive
19,C[C@@H]1CCCCO[C@H](CN(C)C(=O)NC2CCCCC2)[C@@H](C)CN([C@H](C)CO)C(=O)c2cc(NS(=O)(=O)c3cccs3)ccc2O1,inactive
20,COc1ccc(NC(=O)N(C)C[C@@H]2OCCCC[C@@H](C)Oc3ccc(NC(=O)Nc4ccc(F)cc4)cc3C(=O)N([C@H](C)CO)C[C@@H]2C)cc1,inactive
